In PubChem BioAssay AID2675 (National Center for Advancing Translational Sciences (NCATS), 2010):
The whole screen tested about 280,000 compounds, of which about 100 (0.036%) were called active. The inconclusive results got no clear call from the source; some entries with a clear call stand among them for comparison. Calls follow the shape of the dose curve; as a rule, active = well fitted inhibition curve with a large enough effect in the signal ratio, with a control signal flat (not every such curve was filed as active); inconclusive = small, poorly fitted or top-dose-only effect, or effect the other way, or a change in a side signal; inactive = no such curve, though single readings can be large or run the other way; the % refers to the signal ratio. Potencies of inconclusive entries are doubtful fits and often do not repeat. A note “side channel” means that the fit belongs to a control or component signal, not to the main read-out.

Target: Muscleblind-like protein 1 (Homo sapiens) (UniProt Q9NR56)
Experiment: qHTS Assay for Inhibitors of MBNL1-poly(CUG) RNA binding
Details: TR-FRET MBNL1-His/biotin-(CUG)12 binding, 665/545 ratio; series mostly up to 57.5 µM
Procedure, shortened: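 Compound titration spanned 92 nM–58 uM against the MBNL1-His/biotin-(CUG)12 complex. After 60 min at room temperature with 5 nM streptavidin-XL665 and 0.055 ng/ul terbium anti-His, ratiometric 665/545 nm emission (Ex 340 nm) normalized to controls.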
Potency is read from the fitted curve at half-maximal effect; tags tell the direction and shape of the fitted curve or compound fluorescence and quenching.

Sequence of UniProt Q9NR56 (Q9NR56 whole entry, looked up): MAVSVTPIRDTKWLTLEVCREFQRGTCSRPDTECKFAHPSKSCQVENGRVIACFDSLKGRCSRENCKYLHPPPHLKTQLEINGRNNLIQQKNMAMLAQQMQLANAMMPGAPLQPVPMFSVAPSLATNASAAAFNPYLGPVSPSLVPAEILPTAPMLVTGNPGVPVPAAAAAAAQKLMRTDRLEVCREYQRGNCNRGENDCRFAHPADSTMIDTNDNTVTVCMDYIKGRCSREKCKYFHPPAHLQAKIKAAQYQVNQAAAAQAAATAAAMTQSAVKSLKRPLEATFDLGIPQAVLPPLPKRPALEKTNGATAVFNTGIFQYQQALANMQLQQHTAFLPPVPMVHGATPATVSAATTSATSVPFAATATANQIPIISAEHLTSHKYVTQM

| SMILES | Potency |
| --- | --- |
| COc1ccc(COc2ncnc3ccc(Br)cc23)cc1F | inconclusive: 39.8 µM [fluorescent, side channel, single point] |
| CC(=O)Nc1cccc(-c2csc(Nc3ccc(C)cn3)n2)c1 | inconclusive: 0.1 µM [fluorescent, side channel, full curve, poor fit] |
| CCS(=O)(=O)c1ccc(N=Nc2ccc(O)c3ncccc23)c(OC)c1 | inconclusive: 3.16 µM [quencher, side channel, full curve, poor fit] |
| Cc1ccc(N(CC(O)Cn2c3ccccc3c3ccccc32)S(C)(=O)=O)cc1 (stereo unspecified) | inconclusive: 7.08 µM [quencher, side channel, single point] |
| c1ccc(-c2cn(C[C@H]3CC[C@H](Cn4cc(-c5ccccn5)nn4)O3)nn2)nc1 | inactive |
| COC(=O)C(O)(CC(=O)Nc1cc(Cl)ccc1Cl)C(F)(F)F (stereo unspecified) | inconclusive: 50.1 µM [inhibitor, single point] |
| COc1ccc(CCNC(=O)CNS(=O)(=O)c2ccc(F)c(Cl)c2)cc1OC | inactive |
| CCOC(=O)c1sc2nc3c(cc2c1N)COC(C)(CC)C3 (stereo unspecified) | inconclusive: 25.1 µM [quencher, side channel, partial curve] |
| O=C(Nc1ccc2nc(-c3ccco3)c(-c3ccco3)nc2c1)NC1CC1 | inconclusive: 17.8 µM [quencher, side channel, partial curve] |
| CN(CCC#N)C(=O)COC(=O)c1nn(-c2ccccc2)c(=O)c2ccccc12 | inconclusive: 11.2 µM [quencher, side channel, partial curve] |
| N#C/C(=N\Nc1cccc(Cl)c1)C(=O)c1ccccc1 | inactive |
| CCOc1ccc(-c2csc(/C(C#N)=C\c3ccc(O)c([N+](=O)[O-])c3)n2)cc1 | inconclusive: 3.16 µM [quencher, side channel, partial curve] |
| O=C(c1ccc([N+](=O)[O-])cc1)N(Cc1ccc(Cl)cc1Cl)N1C(=O)CCCC1=O | inconclusive: 17.8 µM [quencher, side channel, partial curve] |
| COc1ccccc1/C=C/C(=O)NCC(=O)N/N=C/c1cccnc1 | inconclusive: 35.5 µM [quencher, side channel, partial curve] |
| COc1ccc(NC(=S)NC(NC(=O)c2cccc3ccccc23)C(Cl)(Cl)Cl)c([N+](=O)[O-])c1 (stereo unspecified) | inconclusive: 22.4 µM [quencher, side channel, single point] |
| Cn1c2ccc(F)cc2c2nnc(SCCN3CCCCC3)nc21 | inconclusive: 14.1 µM [quencher, partial curve] |
| Cc1ccccc1NC1=C/C(=N\S(=O)(=O)c2cccs2)c2ccccc2C1=O | inconclusive: 14.1 µM [quencher, side channel, partial curve] |
| Cc1ccc(-c2nn(Cc3ccccc3)cc2/C=C/C(=O)O)cc1 | inactive |
| COc1ccccc1/C=C1\SC(=O)N(CCC(=O)N(C)C2CCS(=O)(=O)C2)C1=O (stereo unspecified) | inconclusive: 17.8 µM [quencher, side channel, partial curve] |

| SMILES | Potency |
| --- | --- |
| O=C(Cn1cc2c(n1)CCCC2)NCc1cccc(Cl)c1 | inconclusive: 0.794 µM [quencher, side channel, full curve, poor fit] |
| CCOC(=O)/C(C)=N/Nc1nc(-c2ccc(NC(C)=O)cc2)cs1 | inconclusive: 14.1 µM [quencher, side channel, partial curve] |
| CC(=O)N(Cc1ccccc1)c1ncc2c(n1)c(=O)c(C#N)c1ccccn12 | inconclusive: 15.8 µM [quencher, partial curve] |
| COc1cccc(-c2nn(C)c3sc(C(=O)NCc4ccco4)cc23)c1 | inactive |
| COc1ccccc1/C=C/C=N/NC(=O)CC1C(=O)NN=C1C (stereo unspecified) | inconclusive: 25.1 µM [quencher, single point] |
| CC1CCCCN1C(=O)c1cc2c(=O)n3ccccc3nc2s1 (stereo unspecified) | inconclusive: 14.1 µM [quencher, side channel, partial curve] |
| Cc1ccccc1CN1CCC(n2nccc2NC(=O)CCCc2ccccc2)CC1 | inactive |
| Cc1cc(C)c2cc3c(N)c(C(=O)N4CCc5ccccc5C4)sc3nc2c1 | inconclusive: 39.8 µM [quencher, side channel, partial curve, poor fit] |
| O=C(O)c1ccccc1NC(=O)C1CCN(S(=O)(=O)c2cccc3nsnc23)CC1 | inconclusive: 15.8 µM [quencher, side channel, partial curve] |
| COc1ccc2c3c([nH]c2c1)C1CC2C(CC(O)C(OC)C2C(=O)O)CN1CC3 (stereo unspecified) | inactive |
| COCCNC(=O)C1CC2Cn3c(nc4cc5ccccc5cc43)C2N1C (stereo unspecified) | inconclusive: 39.8 µM [quencher, side channel, partial curve] |
| Oc1c(C=Nc2cccc3nsnc23)ccc2ccccc12 | inconclusive: 22.4 µM [quencher, side channel, partial curve] |
| Cc1ccc(C(=O)Nc2cc3c(oc2=O)CCCC3=O)cc1 | inconclusive: 12.6 µM [quencher, side channel, partial curve] |
| Cc1ccccc1N=Cc1c(O)n(-c2nccs2)c(=O)c2ccccc12 | inconclusive: 8.91 µM [quencher, side channel, full curve] |
| CC1(C)CC(=O)C(C(=O)/C=C/NCCc2ccccc2)C(=O)C1 | inactive |
| CCCCC(=O)N1CCCC(c2nc3c(nnn3Cc3cc(C)ccc3C)c(=O)[nH]2)C1 (stereo unspecified) | inactive |
| Cc1ccc(Cc2nnc3n(-c4cccc(C)c4)nc(C(=O)c4ccccc4)n3c2=O)cc1 | inconclusive: 0.891 µM [quencher, side channel, single point] |
| CCC(=O)OCc1cc(=O)oc2ccc3ccccc3c12 | inconclusive: 25.1 µM [quencher, side channel, partial curve] |
| COc1ccc(/C=N/Nc2cc(C)nc3c(C)cccc23)cc1 | inconclusive: 28.2 µM [quencher, side channel, partial curve] |

| SMILES | Potency |
| --- | --- |
| CC(=O)c1ccc(OC(=O)CCN2c3ccccc3Sc3ccccc32)cc1 | inconclusive: 2.82 µM [fluorescent, side channel, partial curve, poor fit] |
| O=[N+]([O-])c1cccc2c(N3CCCC3)ccnc12 | inconclusive: 3.98 µM [quencher, side channel, full curve] |
| O=C(CN1C2=NCCCN2c2ccccc21)c1ccc([N+](=O)[O-])cc1 | inconclusive: 14.1 µM [quencher, side channel, partial curve] |
| Cc1nn(C)c(C)c1N1C(=O)c2cccc3c(Br)ccc(c23)C1=O | inconclusive: 3.16 µM [quencher, side channel, partial curve] |
| O=C(Nc1ccc(N2CCOCC2)c2nonc12)C1CCCC1 | inconclusive: 14.1 µM [quencher, side channel, partial curve] |
| CCOC(=O)Cn1c(=O)oc2cc(S(=O)(=O)NCCc3ccc(C)cc3)ccc21 | inconclusive: 39.8 µM [quencher, side channel, partial curve, poor fit] |
| Cc1[nH]c2ccccc2c1/C=N/Nc1nc2ccccc2[nH]1 | inconclusive: 39.8 µM [quencher, side channel, single point] |
| Cc1ccc(/C(O)=C2/C(=O)C(=O)N(c3ccccn3)C2c2ccc([N+](=O)[O-])cc2)cc1 (stereo unspecified) | inconclusive: 17.8 µM [quencher, side channel, single point] |
| CCc1ccc(C2CC(c3ccc(F)cc3)Nc3nc(N)nn32)cc1 (stereo unspecified) | inconclusive: 5.62 µM [fluorescent, side channel, full curve, poor fit] |
| Cc1cc([N+](=O)[O-])ccc1NC(=O)Cc1ccc(F)cc1 | inconclusive: 28.2 µM [quencher, side channel, partial curve, poor fit] |
| O=C(CC1C(=O)NCCN1Cc1c(F)cccc1Cl)NCCCOc1cccnc1 (stereo unspecified) | inconclusive: 100 µM [inhibitor, single point] |
| Cn1c(SCC(=O)NNC(=O)Cc2ccccc2)nnc1-c1ccccc1 | inconclusive: 39.8 µM [fluorescent, side channel, partial curve] |
| Cc1cc(NC(=O)C23CC4CC(C2)CC(n2cnc([N+](=O)[O-])n2)(C4)C3)no1 | inconclusive: 2.82 µM [quencher, side channel, full curve, poor fit] |
| Nc1c(N2CCN(c3ccccc3)CC2)c2ccccc2oc1=O | inconclusive: 12.6 µM [quencher, side channel, partial curve] |
| CN1C/C(=C/c2cccs2)C(=O)/C(=C\c2cccs2)C1 | inconclusive: 20 µM [quencher, side channel, partial curve] |
| c1ccc(CSc2nnc3ccc(-c4ccncc4)nn23)nc1 | inconclusive: 28.2 µM [quencher, side channel, partial curve] |
| CC(O/N=C/c1ccc(OC(F)F)cc1)C(=O)Nc1cccc(S(=O)(=O)N2CCOCC2)c1 (stereo unspecified) | inconclusive: 0.794 µM [quencher, side channel, single point] |
| Cc1cccc(NC(=O)c2ccc(N3CCOCC3)c([N+](=O)[O-])c2)n1 | inconclusive: 15.8 µM [quencher, side channel, partial curve] |
